From PubChem BioAssay AID1345082 (National Center for Advancing Translational Sciences (NCATS), 2018)
The whole screen tested about 94,000 compounds, of which about 4,000 (4.3%) were called active. The shares of active, inactive and inconclusive entries below differ from those in the screen. The call rests on the fitted dose curve; in most records, active means well fitted inhibition curve with a large enough effect; inconclusive means small, poorly fitted or top-dose-only effect; inactive means no such curve, though single readings can be large or run the other way. Potencies of inconclusive entries are doubtful fits and often do not repeat.

test: Cytotoxic Profiling in NIH 3T3 Cell Line of Diverse Libraries Using Quantitative High-Throughput Screening; settings: NIH 3T3 viability, CellTiter-Glo ATP luminescence, 48-72 h; activity change, negative = cytotoxicity: at 96.7 µM (top of the series) unless noted; series mostly up to 96.7 µM; further: nearly all actives have a fitted effect of over 55% in size
In short: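 Mouse fibroblast NIH 3T3 cells, 400 per well, received compound via pintool and were incubated for 48 or 72 hr prior to CellTiter-Glo ATP luminescence measurement.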
On the % scale 0 is the no-effect control and ±100 the full control effect; potency means the concentration at half of the fitted maximal effect; tags describe the fitted curve by direction and shape.

For CN(Cc1ccccc1)C1CCCc2ccccc21 (stereo unspecified), which “activity change, negative = cytotoxicity” value is on record?
The value was inactive: -21% [at 138 µM].

With COc1ccc(Nc2ccnc(N3CCC(NC(=O)c4ccccc4)CC3)n2)cc1 as the compound, how does the Potency read?
The Potency was inconclusive: 50.1 µM [inhibitor, partial curve, poor fit].

With O=C(c1ccc(-c2cccs2)cc1)N1CCC(C(=O)N2CCCC2)CC1 as the compound, how does the Potency read?
The Potency was inconclusive: 70.8 µM [inhibitor, partial curve, poor fit].

For Cc1cccc(C(=O)N2CCCN(C)c3ccccc32)c1, which Potency is on record?
Its Potency is inconclusive: 44.7 µM [inhibitor, partial curve, poor fit].

Which Potency does the source give for CCOc1cc2c(cn1)NCCN(Cc1ccncc1Cl)C2 here?
The Potency was inconclusive: 22.4 µM [inhibitor, full curve, poor fit].

For O=C(Cn1c2c(c(=O)n1Cc1ccccc1)CCN(Cc1ccccc1)C2)NCc1cnccn1, which Potency is on record?
The Potency was inconclusive: 70.8 µM [inhibitor, single point].

With COc1ccc(-c2noc(-c3cccn3CC(=O)Nc3cc(C)c(Cl)cc3OC)n2)cc1F as the compound, how does the “activity change, negative = cytotoxicity” value read?
The value was inactive: -8.02%.

Which Potency does the source give for OC[C@@H]1CN(Cc2ccc(F)cc2)C[C@H]1c1nc(-c2ccncc2)no1 here?
Its Potency is inconclusive: 56.2 µM [inhibitor, partial curve, poor fit].

For CCOC(=O)CNC(=O)N1CCC(N2C(=O)C3(CCCCC3)C2c2ccncc2)CC1 (stereo unspecified), which “activity change, negative = cytotoxicity” value is on record?
The value was inactive: -1.35%.

With COc1ccccc1CNC(=O)c1nnn2cc(C)[nH]c(=O)c12 as the compound, how does the “activity change, negative = cytotoxicity” value read?
Its value is inactive: -6.27%.

With O=C(C1CCCC1)N1CCN(c2nc3ncccc3o2)CC1 as the compound, how does the “activity change, negative = cytotoxicity” value read?
Its value is inactive: -11.5% [at 138 µM].

For O=C1CCN(C2CCOCC2)CCOCCN1, which “activity change, negative = cytotoxicity” value is on record?
The value was inactive: -17.2%.

For Cc1ccc(CN2C(=O)NC3(CCCN(C(=O)c4ccc(C#N)cc4)C3)C2=O)cc1 (stereo unspecified), which Potency is on record?
Its Potency is inconclusive: 70.8 µM [inhibitor, single point].

With CN(Cc1cccc(C(F)(F)F)c1)C(=O)C1(c2ccc(Cl)cc2)CCOCC1 as the compound, how does the Potency read?
Its Potency is inconclusive: 50.1 µM [inhibitor, partial curve, poor fit].

With CCCCCC(=O)N1[C@@H](c2ccco2)[C@@H](C(=O)NC)C[C@]12CCCCN(CCOC)C2=O as the compound, how does the Potency read?
The Potency was inconclusive: 44.7 µM [inhibitor, partial curve, poor fit].

For Cc1ccc(CN2C(=O)COC[C@H]2C(=O)Nc2cccc(C(C)C)c2)cc1, which Potency is on record?
Its Potency is inconclusive: 50.1 µM [inhibitor, partial curve, poor fit].

Which Potency does the source give for Cc1nn2c(c1-c1ccnn1C(C)C)N(C(=O)c1ccc(F)cc1)CCC2 here?
The Potency was inconclusive: 112 µM [inhibitor, single point].

With COc1ccccc1-c1ccc(CN2CCCCC2C(=O)NCc2ccccc2)cc1 (stereo unspecified) as the compound, how does the Potency read?
The Potency was inconclusive: 14.1 µM [inhibitor, full curve, poor fit].

Which “activity change, negative = cytotoxicity” value does the source give for COc1ccc(-n2c(=O)c(C(=O)NCC(F)F)nc3cccnc32)cc1 here?
Its value is inactive: -14.1%.

Which Potency does the source give for CC(C)Oc1cccc2c1c(NC(=O)C1CC(=O)N(C)C1)nn2Cc1ccccc1 (stereo unspecified) here?
Its Potency is inconclusive: 79.4 µM [inhibitor, partial curve, poor fit].

With COc1ccc(NC(=O)NC2CCN(C(=O)N3CC4CC(C3)[C@H]3CCCC(=O)N3C4)CC2)cc1 (stereo partly specified) as the compound, how does the “activity change, negative = cytotoxicity” value read?
The value was inactive: -9.03%.

For O=C(NCc1ccccc1)c1ccc2nnc(-c3ccc(OC(F)(F)F)cc3)n2c1, which Potency is on record?
The Potency was inconclusive: 50.1 µM [inhibitor, partial curve, poor fit].

With FC(F)(F)SCCn1ccnc1-c1cc2n(n1)CCCNC2 as the compound, how does the “activity change, negative = cytotoxicity” value read?
The value was inactive: -23.7%.

For O=C(NCCC1CCN(Cc2ccccc2)CC1)C1CCN(c2cnn(Cc3ccccc3)c(=O)c2)C1 (stereo unspecified), which Potency is on record?
Its Potency is inconclusive: 39.8 µM [inhibitor, partial curve, poor fit].

For COc1cccc(-c2nnnn2[C@H]2CO[C@H]3[C@@H]2OC[C@@H]3NC(=S)Nc2ccc(F)cc2)c1, which Potency is on record?
The Potency was inconclusive: 31.6 µM [inhibitor, partial curve, poor fit].

For Fc1ccc(Nc2cnc3ccc(N4CCOCC4)nn23)cc1F, which Potency is on record?
Its Potency is inconclusive: 39.8 µM [inhibitor, partial curve, poor fit].

For CC(=O)NC1CC2(CCN(C(=O)CCCNC(=O)OC(C)(C)C)CC2)Oc2ccccc21 (stereo unspecified), which “activity change, negative = cytotoxicity” value is on record?
The value was inactive: -0.282%.

With O=C(NCc1ccc(F)cc1)c1ccc2nnc(Cc3ccc(Cl)cc3)n2c1 as the compound, how does the Potency read?
The Potency was inconclusive: 44.7 µM [inhibitor, partial curve, poor fit].

With Cc1nn2c(c1-c1ccccc1[S+](C)(=O)[O-])N(CCCc1ccccc1)CCC2 as the compound, how does the Potency read?
The Potency was inconclusive: 15.8 µM [inhibitor, full curve, poor fit].

For O=C1CC2(CCN(C(=O)c3ccc4c(c3)OCO4)CC2)CN1CC1CCCO1 (stereo unspecified), which “activity change, negative = cytotoxicity” value is on record?
The value was inactive: -23.2%.

Which “activity change, negative = cytotoxicity” value does the source give for COc1ccccc1Nc1ccnc(N2CCCC2C(=O)NC2CC2)n1 (stereo unspecified) here?
The value was inactive: -19%.

With Cn1cc(CN2C[C@H](C(=O)Nc3cccc(F)c3)C[C@H]2c2cccc(C(F)(F)F)c2)cn1 as the compound, how does the Potency read?
Its Potency is inconclusive: 44.7 µM [inhibitor, partial curve, poor fit].

Which Potency does the source give for FC(F)(F)Oc1ccc(Nc2cnc3ccc(N4CCOCC4)nn23)cc1 here?
The Potency was inconclusive: 56.2 µM [inhibitor, partial curve, poor fit].

For COc1cccc(-c2ccc(CN3CCCC(NC(=O)NC(C)C)C3)cc2)c1 (stereo unspecified), which Potency is on record?
Its Potency is inconclusive: 44.7 µM [inhibitor, partial curve, poor fit].

For O=C(COc1ccc(F)cc1)N1CCN(c2cc(-c3ccccc3)[nH]n2)CC1, which Potency is on record?
The Potency was inconclusive: 50.1 µM [inhibitor, partial curve, poor fit].

Which Potency does the source give for O=C(NCc1cccc(Cl)c1)c1ccc2nnc(-c3cc(C(F)(F)F)cc(C(F)(F)F)c3)n2c1 here?
The Potency was inconclusive: 10 µM [inhibitor, full curve].

With Cc1ccc(NC(=O)N2CCCC2c2nncn2C2CCCC2)c(C)c1 (stereo unspecified) as the compound, how does the “outcome” value read?
The value was “inactive”.

With O=C(c1ccc2nnc(-c3ccc(Cl)cc3)n2c1)N1CCN(Cc2ccccc2)CC1 as the compound, how does the Potency read?
The Potency was active: 28.2 µM.

Which Potency does the source give for O=C(NCCc1ccncc1)c1coc(COc2ccc(F)cc2Cl)n1 here?
Its Potency is inconclusive: 31.6 µM [inhibitor, partial curve, poor fit].

With CCn1c(C2CCN(C(=O)CC34CC5CC(CC(C5)C3)C4)CC2)n[nH]c1=O as the compound, how does the “activity change, negative = cytotoxicity” value read?
Its value is inactive: -0.284%.

With COc1ccc(Cl)cc1C(=O)N1CCN(C(=O)c2nnn3c2COC(c2ccccc2)C3)CC1 (stereo unspecified) as the compound, how does the Potency read?
The Potency was inconclusive: 28.2 µM [inhibitor, full curve, poor fit].
